# This is one part of the list. At the low end of the ranking, values are background and their order means little. The protein was read in a cell extract, so binding may be indirect.
# Target: T1, HNF4alpha8 (COS-7 nuclear extract) (UniProt P41235-5)
# T1 sequence: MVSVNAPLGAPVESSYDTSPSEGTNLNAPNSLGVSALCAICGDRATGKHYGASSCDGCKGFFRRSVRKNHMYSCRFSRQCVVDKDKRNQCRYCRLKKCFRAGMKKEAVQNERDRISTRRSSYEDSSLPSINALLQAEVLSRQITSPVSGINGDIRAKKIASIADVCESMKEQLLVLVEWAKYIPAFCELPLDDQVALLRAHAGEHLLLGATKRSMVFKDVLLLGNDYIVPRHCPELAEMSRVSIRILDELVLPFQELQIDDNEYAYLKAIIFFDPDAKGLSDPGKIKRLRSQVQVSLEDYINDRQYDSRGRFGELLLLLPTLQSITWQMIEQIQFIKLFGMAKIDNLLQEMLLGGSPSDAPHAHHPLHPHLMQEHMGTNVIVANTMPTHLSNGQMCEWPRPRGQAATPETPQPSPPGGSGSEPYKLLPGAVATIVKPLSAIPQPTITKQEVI
# Experiment: protein-binding microarray
# Settings: COS-7 nuclear extract on double-stranded Agilent 4x180k PBM; binding buffer, salt, pH and temperature not given; high values mean tight binding; double strand, one strand shown; sequences stand for … in …GCCTAGGGAGATTAGAGTATCGGTCGA
row,Sequence,binding signal (log2 normalized intensity)
1,TCTCAGGTGGGCAGAGGCCTGATGGTGAGT,-0.581
2,TAACACCTGCCTTAGAAAGAGGGTGTAAGA,-1.22
3,AGCTTTACTAAAACAGGGAGCAGGCAGATT,-1.4
4,TTCAGCCAGATTCTCTCACTGCTCTGGCCA,-1.42
5,CATGCCCCAGATGCCCAGCAGAGGGAGCCG,1.74
6,TTGTTTTTGCTTGGAATGCCCTTATCTCAT,2.32
7,TAGCTGAGTTGACCTGTGTTGACAGATGAA,2.65
8,GGGCTCCCGGACCCTGACTCTGCAGCCGAA,-1.45
9,TGGAGAGCAGATGCTTCCCAGAAAGAATGA,-1.16
10,CCTGCTTCCAGGCTTGTACCTTGACCTTCT,7.46
11,AGATCAAAGAGAAAGTAAGTGCACAGCCAG,-1.11
12,ATTCCAGTGTTTCAAAGGAGTGTCTTTCTC,1.51
13,CCTCTTTGCGGATAGATATGTTGAAGTGAC,1.64
14,CCCAGACCGCCATAACTCAGCGGGAGGCAA,-1.15
15,TGGCTGGCCATGAGTGAGCACTTAACAAAT,-1.31
16,CCAACGCCTCCCTCCTTCCGCGGACGTGTT,1.28
17,AAGAAACTCGTGGCATTTTTGCCCCTGCCC,3.61
18,CTTCATCTGGAGACAAATGCTTTTGAACAC,0.438
19,TACCAGGCAGTCGTGATAGTGACCACCTGG,0.129
20,CTATTCTGTAACACAGTTGCACTCACTAGC,-1.31
21,GTCCCTGGCCCCGGGGCGGGGGCGGGCTGG,-0.21
22,TCATCCAAAGACTAATGCATTCCCAGCAAG,-1.27
23,TATGGATAGGCACATATTGGATCTCTGGTA,1.23
24,CAAATTGGATGTTGAACCTCTGTCCTTGGC,2.97
25,AGGGCAAAAGGGCAAAACTGTCACAAGAAA,2.11

row,Sequence,binding signal (log2 normalized intensity)
1,TACGCTGGGCAATAAGCATTCTGTTTCCTA,-0.957
2,TGTTGGAGTTCTAAGAGCCTACTGAGAGGA,-1.38
3,AACACAGGTGACCTTTGCTCCGGTTCCCAA,7.12
4,GAAGACTTCATGATAACACTTCCCAAGCAT,-1.28
5,GCATCTTATCTGAATCTGGAATCACGTTCG,1.16
6,GGCAGCCTTCGTTTGCTTTTCCTTATCATC,0.201
7,CTTGGCAAGGGGAGGCACTCATGGTGTTTG,0.519
8,GATGTCTCTCATTGGAATGAGCCTCCTGAA,-0.287
9,GTCCAAAGTCTCAACTAAGTGTTATCTAAA,1.45
10,GGTCTTCTAGAAACAACACACCTTGCCACC,-1.17
11,CTATTGTCCTATGACCCTGCCAAATCCCCC,4.75
12,AGACAAGATATGAGGCCAGTTTTCCCAAAG,-1.26
13,GCGGCATTCCTGTCAAAATCTGATCTTTCC,1.47
14,GAACAATTATTGCCTGGCATCTAACCTTCG,1.54
15,TAGACAAATTTGTTTACTTCTGTCTCCAGA,-0.614
16,AGCATGGAGAAAATTCTGGACCTTCTTATC,1.59
17,GTAACATTCCTAGATATCAGGAAGGTCAGA,1.88
18,TTCTCCAGCTGCTGTAAGGTTACTGAGGGC,0.705
19,AGTCCAGACAAGTCCCAAGTATTTTCAGCC,-1.21
20,CAAACGGATATTTGATCAAAGGTCAGCTCT,5.82
21,CATTGACTGAGATAGATAAGGCTGAGTGGA,-0.956
22,TTGGATATCATATCATCTTCCCTGTTCAAA,0.648
23,ATGGGACCTTTGCCCTTCTTGTTAACCTCC,4.54
24,AAGGGGGCAAAGGGCATGGGCAGCTTTGAA,5.12
25,TGAGGCAAGCAAAAGCCAAGGCATCTGGGG,-1.24

row,Sequence,binding signal (log2 normalized intensity)
1,TCTGCTGAGTATCCAAAGGTCAGTGACAAA,4.99
2,GTTTCCTAGTTCAAACAGGCCCTCCTCCTC,0.828
3,GGGGGGTTGTTTTTAAAAGGCTGCCTTTCC,0.299
4,GATACCATCAGATACCTACTCTGCTCTTCT,-1.3
5,TAGAACACTTTCCACTCTCTACTGATATGT,0.175
6,AGCCCTAAAGACCACTGGGCTTTCACAAGG,-1.24
7,CTGACAGGATGAATTTATTGCCCTCAGGGT,2.65
8,CCGTCACTGCAAGGCAAACACTCAAGGTCC,-0.132
9,GAGCACAGGGTCAGCAGATCTTTGTTAACA,0.456
10,TCAAAGGTGGAGATAACAAACTTGATTGGG,-1.23
11,AGTCTGTCTTGCTGTTTTTCCAGTTTTTGT,1.55
12,TGTTGACATCTTGATTTAGCCCAGTGAGAC,1.24
13,ATGGAACAAGCCAGGTGTGCAGAGAGCAAA,-1.38
14,TATCAGGGAGATAGTCTGAGAGTCACTGCC,-1.2
15,CTCCTTCATCTTCAAAGCCAGCAATGGCAG,-0.00164
16,CAGTTTGGACTTTGATCCTGATGACTGCAG,8.17
17,ATTACAACCAAAGGAATTTAGCCTTTAACC,2.87
18,CCTCACTTATCACATTCTGCTCTTGAACCA,1.2
19,ATGCAACACAGGGGGAGGAATGCTGACCTC,3.53
20,GCGCCTTGCGAGCGTACGCAGGGCGGCCGG,1.25
21,CGTGGTTCAGGGAGCGAATAAATACATAAA,-0.814
22,GGGTGCTGCCTTTCCTGTGACTTTTGGCCA,4.07
23,TGACTCAGTCTTACTTGACAATTACATAGT,-0.141
24,CTCCCACATGCTGTCTAGGCCAGAGTTCAC,2.83
25,CCCTGACTAAATTCTTGTCAATGACCCTAA,4.19

row,Sequence,binding signal (log2 normalized intensity)
1,AAATCTGCACTTTACGTAAGATAAGGTGAA,0.832
2,CAGTTGACATGATACCTTCCTGAATGCCTA,-1.37
3,CAGCATAGAAAACAAGTTAGACAGTGCCTA,-1.33
4,AGGAGCCTCTGCAACCTTTGCTCTCCCTCC,5.23
5,TGAGAGATTAAACATGCTCTGCATACCTGC,-1.25
6,TTCTTTTTTTTTTTTTTTTTTTTTTGAGAT,3.08
7,GCAGATGGTTTCATCTGGTTTCTGTTTGAG,0.986
8,CTTTAGCTCCTGGGCCCAGATATACAAGAA,-0.234
9,ATCTTGATTACTATAGGGCAAATGGAAGAA,-0.196
10,AAGAAAAGCCTTGTGGCAGTGAGAACAGGT,-1.3
11,GTGTTGTGACTACCTGGTTAAAAGGACAAC,0.22
12,GTCTGACCAACCTGTCCAAAGGTCATCTGT,7.75
13,AAGATCTGTGAAAGAAAAGTACTTTAGTGT,0.992
14,TGGCGCCATTTCAGGTCCACCAAGGTGGTG,0.73
15,AGTGTTAAGGACAACCGGTAGCACAACATA,-1.24
16,ATCCTTCTTGACCAGGCAAGCTTGACCTTT,7.77
17,ATAGCCAAGCCAACCAGGAGAATTTCAGTA,2.47
18,AACACTATCTTCTTTCAGTGTTGACCTTTG,7.46
19,AGAGGGGCCAGGAACGTCACACTGAAAGCT,-1.39
20,ATCCCCCACACCGAGATAGTAGAGATAGTG,2.5
21,GAGCGCAAATGATCAAAGGTCGGTTTTAGG,5.48
22,TCACTGACATTCCAGCCACTAAGAAGCCCA,-1.21
23,TCACAAATGGAGTTTGGTTTAAAGTTCAAG,2.84
24,GTCAGTTGATAAACAGATAACTGGGGGCAA,1.68
25,TGAAGTCCAAAGGCCATCTGCTGGAGAATC,3.81

row,Sequence,binding signal (log2 normalized intensity)
1,AGCCTGTGGTTTCTCTTTGTATACACATTA,1.05
2,AGTAGAGAGCAATCATGGGCCCACAGATGA,-1.1
3,CTTTCTTCTTGATCAAGAGGAAGATCTTTT,1.08
4,CACCTTGGGGGCTGCTGGGGGCACAGTCCA,3.57
5,GGTGTTAAAATAACGACCTTTGGGCTAAAA,4.52
6,ACAGTTAGGTAAGAGACAAAGGTTGCATTC,2.01
7,TCCTTTTGCTTAAAACGCCTGCAGAAACTT,-1.21
8,GGATGAGGCCGTTCTAGCCCTTTTTCCGGC,-1.19
9,TCAAAGCCAGCAACGGTGAGTCAAGCACTT,-1.33
10,GACAGCGGGTGTTTCTGGGAGTTGTGGTCC,1.67
11,GAACATAAGGATGCGGACTCCTCCCTCAGC,-1.22
12,CTGCTGGGCGTGAACTGTGACTTTTATCTT,1.17
13,AGCCAGGTTAATTCACATCTCCAGTTCCAA,-0.845
14,CACCCAGAGCGTCCCACCTGAGGCCAAGCA,-1.39
15,TTGCTGGTCCCTTTCAAAACCTTTGGTTTT,1.28
16,GGCCCTGTGCTGCCCCCGATAGCACTATTA,3.71
17,TAACTAACAAAAGCAGAGGAGTGGCCATGA,-1.32
18,GCATGCACTGTTTGCCATAGATCCCACCAT,0.809
19,GACTCCAGCTAAAGCCTGCTCGTTGGGGGT,-1.37
20,TCATTCAAAGTCCAAAAAGAATCAGTTACA,1.48
21,GCAGAGTTTTTTACTGCTCCTGCTGGCTAG,-1.31
22,GCCAGATATGCCGAGAATGCAGCCTTATCT,-1.32
23,GCCTGTCAGGCCCAGAAACACTGAACCTTG,2.38
24,ATCACACAGGCATATTTGGTTAGCTGTGCA,0.44
25,TTACCTGGGAAATTCCCTTTGCCTCATCTG,-1.12

row,Sequence,binding signal (log2 normalized intensity)
1,CACAGACCTGCCTCTCTCTCATGTCTGTAC,0.832
2,AGGTCAGGTGAATCAACGATAAGGGATGAT,-1.3
3,TCCTTCTCACCGGGTGGAGCCTCACTGCAG,-0.4
4,AGTCCAAGAGATTTCTACAGATAGCAAGAT,-1.3
5,CATCATAAACCCGATCCTTACTATTAGGTC,1
6,GATAATCTCAAAAGGGAATTTTGGACAAGG,-0.992
7,GACCTGGAGCCAGGGCCTTTTCAAGGGAGT,-1.3
8,CTTCAAGTGTGACCCTGAACCTACAGCCCC,3.08
9,CAAGCCCAAAGCCCCCAGAGGTTCTAGCCC,3.15
10,ACCATCTCCAACATGACCACCTGGTTTAAG,0.217
11,GATAAGCCAAGAATGTACTCTCCCCACCTG,2.95
12,GGAAGGAGTCATTATCTTTATTATCCCAGT,1.97
13,GACCTTCAGATGCAGTCCAGAAGGTCAGGA,4.19
14,CGGAAGTTGCAGTGAGCTAAGATTGGACTC,5.36
15,TGGGACTCATTTATGGAGGAATTTGGACTT,5.36
16,GTGCCTCTTTGGTGAATTTTATGTCTTCTT,1.36
17,TGTCTCTGTAAATAAATGTCATTTAAGACG,0.537
18,CTGCTGGACACCGAGGTCCTGGGGCGATGC,-1.24
19,TATTGAACCACCAGATAGAGCTTTTGAGGG,-1.28
20,ACTAAGTGCTTAGTATGTGCTAGGCATTTT,0.0923
